In the supplement of paper PMC4967469:
A lower IC50 marks a more sensitive line; a fit beyond the top or the lowest dose is shown as a bound at that dose. AUC sums up the same curve from the lowest dose to the 256-fold higher top dose; values near 1 show little effect. The top dose, if marked as inferred, is not printed in the source and was worked back from the curve model.

Assays:
Test in all cases: Viability of human cancer cell lines after 72 h of drug (GDSC screen)
CAY10603 = compound: CC(C)(C)OC(=O)Nc1ccc(-c2cc(C(=O)NCCCCCCC(=O)NO)no2)cc1 [CAY10603]; conditions: top dose 20 µM; top dose inferred
Description: (§1)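 Human cancer cell lines in 384-well plates, medium with 10% serum, drug for 72 h over a 256-fold dose range (nine 2-fold or five 4-fold steps up to the top dose). Adherent lines were fixed and stained with the nucleic acid dye Syto60, suspension lines read with resazurin; signal relative to control wells, capped at 0 and 100%. One two-parameter sigmoid per drug and line, fitted in a mixed model over all curves with the slope shared within a line.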

XMD8-92 = compound: CCOc1cc(N2CCC(O)CC2)ccc1Nc1ncc2c(n1)N(C)c1ccccc1C(=O)N2C [XMD8-92]; conditions: top dose 10 µM; top dose inferred
Description: as §1

CH5424802 = compound: CCc1cc2c(cc1N1CCC(N3CCOCC3)CC1)C(C)(C)c1[nH]c3cc(C#N)ccc3c1C2=O [CH5424802]; conditions: top dose 5.12 µM; top dose inferred
Description: as §1

ACHP (KIN001-260) = compound: N#Cc1c(C2CCNCC2)cc(-c2c(O)cccc2OCC2CC2)nc1N [ACHP (KIN001-260)]; conditions: top dose 20 µM; top dose inferred
Description: as §1

| Cell Line | AUC (CAY10603) | IC50 (CAY10603) [µM] | AUC (XMD8-92) | IC50 (XMD8-92) [µM] | AUC (CH5424802) | IC50 (CH5424802) [µM] | AUC (ACHP (KIN001-260)) | IC50 (ACHP (KIN001-260)) [µM] |
| --- | --- | --- | --- | --- | --- | --- | --- | --- |
| 451Lu (melanoma, adherent) | 0.669 | 3.62 | 0.864 | 8.14 | 0.988 | > 5.12 | 0.989 | > 20 |
| NH-12 (neuroblastoma, adherent) | 0.308 | 0.338 | 0.963 | > 10 | 0.835 | 3.97 | 0.921 | > 20 |
| LC-1-sq (lung squamous cell carcinoma, adherent) | 0.574 | 2.07 | 0.888 | > 10 | 0.96 | > 5.12 | 0.984 | > 20 |
| VA-ES-BJ (soft tissue, adherent) | 0.727 | 5.75 | 0.977 | > 10 | 0.986 | > 5.12 | 0.983 | > 20 |
| NCI-H1781 (lung adenocarcinoma, adherent) | 0.846 | 14.6 | 0.987 | > 10 | 0.988 | > 5.12 | 0.966 | > 20 |
| HuH-7 (liver, adherent) | 0.545 | 1.66 | 0.929 | > 10 | 0.985 | > 5.12 | 0.987 | > 20 |
| H513 (mesothelioma, semi-adherent) | 0.972 | > 20 | 0.971 | > 10 | 0.982 | > 5.12 | 0.985 | > 20 |
| VMRC-RCZ (kidney, adherent) | 0.561 | 1.89 | 0.934 | > 10 | 0.881 | > 5.12 | 0.97 | > 20 |
| EN (endometrium, adherent) | 0.566 | 1.99 | 0.98 | > 10 | 0.977 | > 5.12 | 0.945 | > 20 |
| OE21 (oesophagus, adherent) | 0.702 | 5.79 | 0.807 | 7.63 | 0.963 | > 5.12 | 0.966 | > 20 |
| RC-K8 (B-cell lymphoma, suspension) | 0.679 | 3.66 | 0.993 | > 10 | 0.993 | > 5.12 | 0.985 | > 20 |
| NCI-H1304 (small cell lung carcinoma, suspension) | 0.755 | 7.28 | 0.885 | > 10 | 0.973 | > 5.12 | 0.988 | > 20 |
| H2595 (mesothelioma, adherent) | 0.565 | 2.01 | 0.87 | > 10 | 0.973 | > 5.12 | 0.976 | > 20 |
| CHSA0011 (chondrosarcoma, adherent) | 0.836 | > 20 | 0.871 | > 10 | 0.97 | > 5.12 | 0.964 | > 20 |
| G-401 (kidney, adherent) | 0.432 | 0.797 | 0.925 | > 10 | 0.981 | > 5.12 | 0.935 | > 20 |
| TK10 (kidney, adherent) | 0.978 | > 20 | 0.865 | > 10 | 0.972 | > 5.12 | 0.908 | > 20 |
| CAL-78 (chondrosarcoma, adherent) | 0.867 | > 20 | 0.921 | > 10 | 0.986 | > 5.12 | 0.98 | > 20 |
| ESO51 (oesophagus, semi-adherent) | 0.545 | 1.74 | 0.978 | > 10 | 0.92 | > 5.12 | 0.931 | > 20 |
| NCI-H1944 (lung adenocarcinoma, adherent) | 0.43 | 0.792 | 0.944 | > 10 | 0.981 | > 5.12 | 0.889 | > 20 |
| PL4 (pancreas, adherent) | 0.712 | 5.08 | 0.933 | > 10 | 0.987 | > 5.12 | 0.974 | > 20 |
| KYSE-140 (oesophagus, adherent) | 0.984 | > 20 | 0.952 | > 10 | 0.957 | > 5.12 | 0.946 | > 20 |

| Cell Line | AUC (CAY10603) | IC50 (CAY10603) [µM] | AUC (XMD8-92) | IC50 (XMD8-92) [µM] | AUC (CH5424802) | IC50 (CH5424802) [µM] | AUC (ACHP (KIN001-260)) | IC50 (ACHP (KIN001-260)) [µM] |
| --- | --- | --- | --- | --- | --- | --- | --- | --- |
| LS-1034 (large intestine, adherent) | 0.509 | 1.33 | 0.892 | > 10 | 0.984 | > 5.12 | 0.902 | > 20 |
| HCC1395 (breast, adherent) | 0.863 | > 20 | 0.964 | > 10 | 0.98 | > 5.12 | 0.964 | > 20 |
| HCC1937 (breast, adherent) | 0.604 | 2.53 | 0.949 | > 10 | 0.968 | > 5.12 | 0.962 | > 20 |
| NCI-SNU-16 (stomach, suspension) | 0.862 | 13.9 | 0.904 | > 10 | 0.991 | > 5.12 | 0.991 | > 20 |
| WM278 (melanoma, adherent) | 0.863 | > 20 | 0.922 | > 10 | 0.983 | > 5.12 | 0.954 | > 20 |
| MC-CAR (haematopoietic neoplasm, suspension) | 0.284 | 0.331 | 0.841 | 5.89 | 0.988 | > 5.12 | 0.877 | 16.4 |
| NCI-H1792 (lung adenocarcinoma, adherent) | 0.852 | 13.2 | 0.931 | > 10 | 0.96 | > 5.12 | 0.99 | > 20 |
| NCI-H1755 (lung adenocarcinoma, adherent) | 0.302 | 0.314 | 0.96 | > 10 | 0.919 | > 5.12 | 0.837 | 16.4 |
| CW-2 (large intestine, adherent) | 0.652 | 3.41 | 0.978 | > 10 | 0.987 | > 5.12 | 0.977 | > 20 |
| MDA-MB-415 (breast, adherent) | 0.847 | > 20 | 0.925 | > 10 | 0.969 | > 5.12 | 0.97 | > 20 |
| NCI-H650 (lung adenocarcinoma, adherent) | 0.552 | 1.76 | 0.914 | > 10 | 0.918 | > 5.12 | 0.967 | > 20 |
| SLVL (B-cell lymphoma, suspension) | 0.24 | 0.209 | 0.962 | > 10 | 0.982 | > 5.12 | 0.822 | 12.6 |
| COLO-783 (melanoma, adherent) | 0.857 | 15.3 | 0.989 | > 10 | 0.986 | > 5.12 | 0.99 | > 20 |
| TGW (neuroblastoma, adherent) | 0.303 | 0.383 | 0.974 | > 10 | 0.978 | > 5.12 | 0.863 | 13.5 |
| A388 (skin, adherent) | 0.767 | 8.48 | 0.921 | > 10 | 0.983 | > 5.12 | 0.981 | > 20 |
| NCI-H441 (lung adenocarcinoma, adherent) | 0.882 | > 20 | 0.962 | > 10 | 0.98 | > 5.12 | 0.973 | > 20 |
| NCI-H1355 (lung adenocarcinoma, adherent) | 0.917 | > 20 | 0.928 | > 10 | 0.978 | > 5.12 | 0.975 | > 20 |
| ES5 (Ewing sarcoma, adherent) | 0.2 | 0.137 | 0.87 | > 10 | 0.821 | 3.57 | 0.882 | > 20 |
| NCI-H1651 (lung adenocarcinoma, adherent) | 0.623 | 2.81 | 0.985 | > 10 | 0.986 | > 5.12 | 0.985 | > 20 |
| NMC-G1 (glioma, adherent) | 0.664 | 3.98 | 0.939 | > 10 | 0.971 | > 5.12 | 0.959 | > 20 |
| IM-95 (stomach, adherent) | 0.665 | 3.72 | 0.943 | > 10 | 0.982 | > 5.12 | 0.967 | > 20 |

| Cell Line | AUC (CAY10603) | IC50 (CAY10603) [µM] | AUC (XMD8-92) | IC50 (XMD8-92) [µM] | AUC (CH5424802) | IC50 (CH5424802) [µM] | AUC (ACHP (KIN001-260)) | IC50 (ACHP (KIN001-260)) [µM] |
| --- | --- | --- | --- | --- | --- | --- | --- | --- |
| COR-L23 (large cell lung carcinoma, adherent) | 0.427 | 0.794 | 0.982 | > 10 | 0.987 | > 5.12 | 0.944 | > 20 |
| H2461 (mesothelioma, adherent) | 0.758 | 8.55 | 0.897 | > 10 | 0.982 | > 5.12 | 0.983 | > 20 |
| AMO-1 (haematopoietic neoplasm, suspension) | 0.302 | 0.381 | 0.841 | 5.55 | 0.983 | > 5.12 | 0.809 | 8.69 |
| Hs683 (glioma, adherent) | 0.734 | 5.86 | 0.954 | > 10 | 0.988 | > 5.12 | 0.983 | > 20 |
| SK-MEL-3 (melanoma, adherent) | 0.593 | 2.35 | 0.937 | > 10 | 0.975 | > 5.12 | 0.879 | > 20 |
| D-423MG (glioma, adherent) | 0.488 | 1.15 | 0.896 | > 10 | 0.974 | > 5.12 | 0.893 | > 20 |
| HGC-27 (stomach, adherent) | 0.493 | 1.2 | 0.875 | 7.3 | 0.99 | > 5.12 | 0.969 | > 20 |
| LK-2 (lung squamous cell carcinoma, adherent) | 0.443 | 0.882 | 0.938 | > 10 | 0.987 | > 5.12 | 0.978 | > 20 |
| KURAMOCHI (ovary, adherent) | 0.656 | 3.63 | 0.885 | > 10 | 0.981 | > 5.12 | 0.977 | > 20 |
| CHSA8926 (chondrosarcoma, adherent) | 0.856 | > 20 | 0.942 | > 10 | 0.978 | > 5.12 | 0.974 | > 20 |
| LB1047-RCC (kidney, adherent) | 0.463 | 0.976 | 0.894 | > 10 | 0.976 | > 5.12 | 0.964 | > 20 |
| EVSA-T (breast, adherent) | 0.429 | 0.824 | 0.917 | > 10 | 0.877 | 3.89 | 0.501 | 1.25 |
| MFE-319 (endometrium, adherent) | 0.928 | > 20 | 0.95 | > 10 | 0.989 | > 5.12 | 0.989 | > 20 |
| SK-MEL-28 (melanoma, adherent) | 0.726 | 5.39 | 0.904 | > 10 | 0.988 | > 5.12 | 0.971 | > 20 |
| GI-1 (glioma, adherent) | 0.372 | 0.563 | 0.863 | 8.06 | 0.987 | > 5.12 | 0.942 | > 20 |
| HEC-1 (endometrium, adherent) | 0.643 | 3.06 | 0.927 | > 10 | 0.989 | > 5.12 | 0.989 | > 20 |
| TT (thyroid, adherent) | 0.952 | > 20 | 0.949 | > 10 | 0.98 | > 5.12 | 0.981 | > 20 |
| SH-4 (melanoma, adherent) | 0.826 | > 20 | 0.921 | > 10 | 0.921 | > 5.12 | 0.862 | > 20 |
| H3118 (head and neck, adherent) | 0.379 | 0.562 | 0.911 | > 10 | 0.966 | > 5.12 | 0.97 | > 20 |
